Where “and” joins values, the source holds several entries; their conditions need not be identical. Identical values can stand only once. Screen size: about 310,000 compounds; about 11,000 (3.5%) were called active. This list was built around the results that the source calls inconclusive (neither active nor inactive); the mix of calls is not that of the screen. Calls follow the shape of the dose curve; as a rule, active = well fitted inhibition curve with a large enough effect; inconclusive = small, poorly fitted or top-dose-only effect, or effect the other way; inactive = flat fitted curve, though single readings scatter. A potency beside an inconclusive call is a rough fit, not a confirmed value.
Experiment: VP16 counterscreen qHTS for inhibitors of ROR gamma transcriptional activity;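 also: Gal4-VP16 expression switched on by copper sulfate through the metallothionein promoter; nearly all actives have a fitted effect of over 50% in size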
Settings: Drosophila S2 Gal4-VP16 UAS-luciferase, luminescence, 20 h; series mostly up to 53.6 µM
In the case of `O=C(CC12CC3CC(CC(C3)C1)C2)Nc1nncs1`, the Potency is reported as “inactive”. With `CC(=O)Nc1ccc(OC(=O)c2ccc(Cl)cc2)cc1` the Potency was “inactive”. In the case of `Cc1cccc(-c2noc(CN(C(=O)/C=C/c3ccccc3Cl)C(C)C)n2)c1`, the Potency is reported as inconclusive: 5.62 µM [activator, single point]. In the case of `Cc1cnc(CNc2ncnc3ccc(-c4ccccc4C#N)cc23)cn1`, the Potency is reported as “inactive”. For `CCc1ccc(/C=C\C(=O)N2CCc3ccccc3C2)cc1`, the Potency was inconclusive: 20 µM [inhibitor, single point]. For `Cc1nn(-c2ccccn2)c2nc(-c3cccs3)cc(C(=O)N3CCOCC3)c12`, the Potency was “inactive”. In the case of `COc1cc(CNc2ccc(CNc3ncn[nH]3)cc2)ccc1OCC(=O)NC(C)(C)C`, the Potency is reported as “inactive”. For `COc1cc2c(cc1OC)CN(C(=O)c1ccc(S(=O)(=O)N(C)c3ccccc3)cc1)CC2`, the Potency was “inactive”. In the case of `CCCCCn1cnc2c(sc3nc4c(cc32)CSC(C)(C)C4)c1=O`, the Potency is reported as “inactive”. In the case of `CN1CCN(c2ccc(NC(=O)c3ccc(-c4ccc(Br)cc4)o3)cc2)CC1`, the Potency is reported as “inactive”. With `COC(=O)N1C(=O)[C@](c2ccccc2)(C(C)C)N1C(=O)OC` the Potency was inconclusive: 35.5 µM [inhibitor, single point]. For `O=C(CCN1C(=O)c2ccccc2C1=O)NC(=S)Nc1cccc(Cl)c1`, the Potency was inconclusive: 22.4 µM [inhibitor, single point]. With `O=C(CSc1ccc(Cl)cc1)Nc1cccc(-c2nnc(-c3ccco3)o2)c1` the Potency was inconclusive: 10 µM [inhibitor, partial curve]. In the case of `CC(=O)Nc1cccc(C(=O)OC(C(=O)c2ccc(C)cc2)c2ccccc2)c1` (configuration not stated), the Potency is reported as inconclusive: 35.5 µM [inhibitor, single point]. In the case of `COC(=O)CC(NC(=S)NC(=O)c1ccccc1)c1ccc(Br)cc1` (configuration not stated), the Potency is reported as inconclusive: 25.1 µM [inhibitor, single point]. With `C=CCN(c1ccccc1)S(=O)(=O)c1cc(C(=O)NC2=NCCS2)ccc1Cl` the Potency was inconclusive: 35.5 µM [inhibitor, single point]. In the case of `CN(C)C(=O)CCc1nc(-c2ccc(C(C)(C)C)cc2)no1`, the Potency is reported as inconclusive: 35.5 µM [inhibitor, single point]. With `CSc1cccc(NC(=S)N(Cc2ccc(C)cc2)Cc2cccnc2)c1` the Potency was inconclusive: 6.31 µM [inhibitor, single point]. With `Cc1cc(/C(N)=N/OC(=O)c2ccccc2Cl)no1` the Potency was inconclusive: 15.8 µM [inhibitor, single point]. For `CC(C)=CC(=O)OCC(=O)Nc1cc(C)cc(C)c1`, the Potency was inconclusive: 35.5 µM [inhibitor, single point]. With `COc1ccc(-n2ccn3c(CCC(=O)N4CCN(c5cccc(C)c5C)CC4)nnc3c2=O)cc1` the Potency was “inactive”. For `COC(=O)c1ccccc1NC(=S)NC(NC(=O)COc1ccccc1)C(Cl)(Cl)Cl` (configuration not stated), the Potency was inconclusive: 25.1 µM [inhibitor, single point]. For `CCN(CC)S(=O)(=O)c1ccc(N2CCCCC2)c(NC(=O)/C=C/c2cc(OC)c(OC)c(OC)c2)c1`, the Potency was “inactive”. For `Cc1nc(-c2ccccn2)sc1C(=O)Nc1ccc(F)cc1`, the Potency was “inactive”. In the case of `COc1ccccc1CN(C)C(=O)c1cc(C)nc2ccccc12`, the Potency is reported as “inactive”. With `COc1ccc(NC(=O)C(=O)N/N=C\c2ccc(CNC(=O)C(=O)Nc3ccc(C)c(C)c3)o2)c(OC)c1` the Potency was active: 3.16 µM. For `COc1ccc(/C=c2\sc3nc(-c4ccccc4)c(-c4ccccc4)n3c2=O)cc1OC`, the Potency was “inactive”. For `Nc1nonc1C(=O)NCCNCc1ccccc1OCc1ccccc1F`, the Potency was inconclusive: 35.5 µM [inhibitor, single point]. In the case of `Clc1ccccc1OCCCOc1cccc2cccnc12`, the Potency is reported as inconclusive: 35.5 µM [inhibitor, single point]. For `CCN(C(=S)NCc1ccccc1)c1ccccc1`, the Potency was “inactive”. For `N=c1oc2c3c4c(cc2cc1C(=O)Nc1ccccc1)CCCN4CCC3`, the Potency was “inactive”. With `COCc1ccc(CN2CCC(C(=O)Nc3cccc(-c4cccc(Cl)c4)c3)CC2)o1` the Potency was active: 8.91 µM. With `COc1ccc(-c2noc(N3CCC(C(=O)NCc4ccc(F)cc4)CC3)n2)cc1` the Potency was inconclusive: 15.8 µM [inhibitor, partial curve, poor fit]. With `CCCCCCOc1ccc(N2C(=O)CC(N3CCN(CCN=CC4C(=O)CC(C)(C)CC4=O)CC3)C2=O)cc1` (configuration not stated) the Potency was “inactive”. In the case of `CCc1c(C(=O)Nc2ncn(Cc3cccc(C)c3)n2)csc1C`, the Potency is reported as active: 12.6 µM. For `O=S(=O)(NCc1ccc(Cl)cc1Cl)c1cccs1`, the Potency was inconclusive: 7.08 µM [activator, partial curve]. For `Cc1cc(C)nc(NC(=NCCc2c[nH]c3ccccc23)NC(=O)Nc2cccc([N+](=O)[O-])c2)n1`, the Potency was inconclusive: 5.62 µM [activator, single point]. In the case of `C/C(=N\NC(N)=S)C1=CCC2C3CC[C@H]4CC(O)CC[C@]4(C)C3CC[C@]12C` (some centres not stated), the Potency is reported as inconclusive: 7.94 µM [inhibitor, partial curve]. In the case of `O=C(N/N=C/c1cc(Cl)cc([N+](=O)[O-])c1O)c1cc(-c2ccccn2)nc2ccccc12`, the Potency is reported as active: 10 µM. With `COc1ccc(CCNC(=S)NCCc2c[nH]c3ccccc23)cc1` the Potency was inconclusive: 15.8 µM [inhibitor, single point]. For `CCn1nc(C)c(CN2CCC(n3nccc3NC(=O)c3ccc4c(c3)OCO4)CC2)c1C`, the Potency was “inactive”. With `CC1CCCN(c2ccc(C(=O)NCc3cccs3)cn2)C1` (configuration not stated) the Potency was “inactive”. For `Cc1cc(NC(=O)c2cnn3c(C(F)F)cc(-c4ccccc4)nc23)no1`, the Potency was inconclusive: 11.2 µM [inhibitor, single point]. With `O=C(NN=C1CCCC1)c1cc(Br)ccc1O` the Potency was inconclusive: 28.2 µM [inhibitor, single point]. With `CC1CCCCN1CCCNC(=O)CCCN1C(=O)c2cccnc2Sc2ccccc21` (configuration not stated) the Potency was “inactive”. In the case of `C/C(=C\c1ccc(C(=O)O)cc1)c1ccc2c(c1)C(C)(C)CCC2(C)C`, the Potency is reported as “inactive and inconclusive: 12.6 µM [inhibitor, single point]”. For `COc1ccc(N(C(=O)/C=C/c2ccc(OC)c(OC)c2)C2=CC3CCC(C2)N3C)cc1` (configuration not stated), the Potency was “inactive”.

From PubChem BioAssay AID2546 (National Center for Advancing Translational Sciences (NCATS), 2010)
Potency is read from the fitted curve at half-maximal effect; tags tell the direction and shape of the fitted curve.
